No constants are given. Whether binding was seen depends on the method and setting. For part of these data: Binding seen in cells or lysates may run through a third protein. Some entries that bind do so weakly or less than the wild type. For part of these data: Where a sequence is shown, tags or fusion partners need not be part of it.
What was measured:
[1] = molecular target: T1, Flag-tagged USP36 deletion mutant, C-terminal NoLS-containing region (amino acids 801-1121) (human) (UniProt Q9P275); assay: co-IP; anti-Flag immunoprecipitation from lysates of transfected 293, HeLa or H1299 cells (NP-40 lysis buffer), immunoblot
T1 sequence: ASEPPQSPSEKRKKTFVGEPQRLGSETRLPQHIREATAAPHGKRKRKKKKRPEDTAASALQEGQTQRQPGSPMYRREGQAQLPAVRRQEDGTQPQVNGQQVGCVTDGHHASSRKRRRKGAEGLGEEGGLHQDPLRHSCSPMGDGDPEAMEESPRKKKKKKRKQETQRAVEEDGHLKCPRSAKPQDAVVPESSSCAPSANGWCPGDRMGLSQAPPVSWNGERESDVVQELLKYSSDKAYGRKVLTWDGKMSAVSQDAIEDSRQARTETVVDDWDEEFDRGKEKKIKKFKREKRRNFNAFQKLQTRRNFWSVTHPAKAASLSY

[2] = molecular target: T2, Flag-tagged USP36 deletion mutant, N-terminal USP domain-containing region (amino acids 1-420) (human) (UniProt Q9P275); assay: as above
T2 sequence: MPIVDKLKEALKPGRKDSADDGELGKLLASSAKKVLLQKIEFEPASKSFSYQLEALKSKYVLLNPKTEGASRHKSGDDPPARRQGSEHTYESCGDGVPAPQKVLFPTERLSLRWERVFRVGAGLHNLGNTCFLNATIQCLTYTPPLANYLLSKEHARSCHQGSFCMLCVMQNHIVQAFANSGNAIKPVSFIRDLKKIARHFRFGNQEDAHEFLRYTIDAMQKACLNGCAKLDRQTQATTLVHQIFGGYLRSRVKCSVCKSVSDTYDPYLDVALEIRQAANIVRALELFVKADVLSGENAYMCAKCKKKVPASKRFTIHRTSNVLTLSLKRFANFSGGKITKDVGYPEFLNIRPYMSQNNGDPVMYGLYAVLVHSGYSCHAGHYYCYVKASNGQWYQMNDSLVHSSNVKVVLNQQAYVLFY

[3] = molecular target: T3, Flag-tagged USP36 deletion mutant, middle region (amino acids 421-800) (human) (UniProt Q9P275); assay: as above
T3 sequence: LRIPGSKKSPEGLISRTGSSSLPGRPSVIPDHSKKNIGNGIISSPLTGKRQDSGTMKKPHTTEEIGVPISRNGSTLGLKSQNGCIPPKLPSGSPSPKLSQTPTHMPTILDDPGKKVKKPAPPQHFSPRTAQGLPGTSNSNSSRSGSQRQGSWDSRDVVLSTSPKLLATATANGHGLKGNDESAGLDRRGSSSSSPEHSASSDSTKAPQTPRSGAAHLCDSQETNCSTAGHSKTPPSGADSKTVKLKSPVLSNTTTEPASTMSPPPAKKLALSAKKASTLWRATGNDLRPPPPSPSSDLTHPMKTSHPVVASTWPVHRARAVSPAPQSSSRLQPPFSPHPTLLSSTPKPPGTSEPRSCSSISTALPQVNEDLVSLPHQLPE

[4] = molecular target: T4, Flag-tagged full-length USP36 (wild type) (human) (UniProt Q9P275); assay: as above
T4 sequence: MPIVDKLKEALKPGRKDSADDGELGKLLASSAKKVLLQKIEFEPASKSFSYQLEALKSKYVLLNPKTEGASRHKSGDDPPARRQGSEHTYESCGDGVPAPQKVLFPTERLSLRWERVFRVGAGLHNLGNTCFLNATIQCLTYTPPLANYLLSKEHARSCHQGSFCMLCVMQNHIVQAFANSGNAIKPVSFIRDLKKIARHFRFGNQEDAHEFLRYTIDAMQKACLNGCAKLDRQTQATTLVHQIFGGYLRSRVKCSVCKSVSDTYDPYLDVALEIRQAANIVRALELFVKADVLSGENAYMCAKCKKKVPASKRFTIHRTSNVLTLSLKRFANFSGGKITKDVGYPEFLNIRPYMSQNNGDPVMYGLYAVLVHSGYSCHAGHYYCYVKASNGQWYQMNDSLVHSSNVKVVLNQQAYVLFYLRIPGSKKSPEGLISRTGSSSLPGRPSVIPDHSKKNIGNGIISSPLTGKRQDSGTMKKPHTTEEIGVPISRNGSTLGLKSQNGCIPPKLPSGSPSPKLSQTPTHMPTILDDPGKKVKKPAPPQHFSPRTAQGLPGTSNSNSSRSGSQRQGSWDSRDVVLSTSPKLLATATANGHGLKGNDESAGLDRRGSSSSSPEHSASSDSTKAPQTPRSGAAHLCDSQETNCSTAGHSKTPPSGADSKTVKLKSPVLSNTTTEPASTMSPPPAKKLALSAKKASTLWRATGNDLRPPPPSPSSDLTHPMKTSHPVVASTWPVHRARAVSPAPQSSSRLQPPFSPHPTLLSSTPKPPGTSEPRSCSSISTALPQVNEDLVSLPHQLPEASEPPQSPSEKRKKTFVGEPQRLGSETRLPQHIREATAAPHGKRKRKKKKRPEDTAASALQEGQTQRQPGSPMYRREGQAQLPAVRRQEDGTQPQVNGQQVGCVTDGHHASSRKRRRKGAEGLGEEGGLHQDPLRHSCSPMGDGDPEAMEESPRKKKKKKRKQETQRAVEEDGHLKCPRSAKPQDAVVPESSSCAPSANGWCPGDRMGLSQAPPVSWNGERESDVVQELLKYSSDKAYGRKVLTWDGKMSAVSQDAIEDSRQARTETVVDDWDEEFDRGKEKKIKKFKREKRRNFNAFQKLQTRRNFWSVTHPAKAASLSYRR

[5] = molecular target: T4, Flag-tagged full-length USP36 (wild type) (human); assay: SEC; nuclear extracts of 293 cells expressing Flag-USP36 on Superose 6 10/300 GL in PBS pH 7.2; fractions analysed by immunoblot
[6] = molecular target: T5, endogenous USP36 (human (endogenous in H1299, 293, HeLa)) (UniProt Q9P275); assay: co-IP; endogenous proteins; 293 (and HeLa) lysates immunoprecipitated with anti-USP36 antibody (Proteintech), immunoblot with anti-EXOSC10
T5 sequence: T4 sequence

[7] = molecular target: T4, Flag-tagged full-length USP36 (wild type) (human); assay: co-IP; lysates of the isolated nucleolar fraction of HeLa cells expressing Flag-USP36; anti-Flag immunoprecipitation, immunoblot with anti-EXOSC10
[8] = molecular target: T1, Flag-tagged USP36 deletion mutant, C-terminal NoLS-containing region (amino acids 801-1121) (human); assay: co-IP; anti-Flag immunoprecipitation in the presence of 100 μg/ml RNase A and 100 U/ml RNase T1; 293 and HeLa cells transfected with Flag-USP36; cells of Supplementary Figures S2C, D not told
[9] = molecular target: T4, Flag-tagged full-length USP36 (wild type) (human); assay: as above

- binding [1]: binds
- binding [2]: no binding
- binding [3]: no binding
- binding [4]: binds
- binding [5]: binds
- binding [6]: binds
- binding [7]: binds
- binding [8]: binds
- binding [9]: binds
B1: endogenous EXOSC10 (enzyme, UniProt Q01780 1-885)
chain: MAPPSTREPRVLSATSATKSDGEMVLPGFPDADSFVKFALGSVVAVTKASGGLPQFGDEYDFYRSFPGFQAFCETQGDRLLQCMSRVMQYHGCRSNIKDRSKVTELEDKFDLLVDANDVILERVGILLDEASGVNKNQQPVLPAGLQVPKTVVSSWNRKAAEYGKKAKSETFRLLHAKNIIRPQLKFREKIDNSNTPFLPKIFIKPNAQKPLPQALSKERRERPQDRPEDLDVPPALADFIHQQRTQQVEQDMFAHPYQYELNHFTPADAVLQKPQPQLYRPIEETPCHFISSLDELVELNEKLLNCQEFAVDLEHHSYRSFLGLTCLMQISTRTEDFIIDTLELRSDMYILNESLTDPAIVKVFHGADSDIEWLQKDFGLYVVNMFDTHQAARLLNLGRHSLDHLLKLYCNVDSNKQYQLADWRIRPLPEEMLSYARDDTHYLLYIYDKMRLEMWERGNGQPVQLQVVWQRSRDICLKKFIKPIFTDESYLELYRKQKKHLNTQQLTAFQLLFAWRDKTARREDESYGYVLPNHMMLKIAEELPKEPQGIIACCNPVPPLVRQQINEMHLLIQQAREMPLLKSEVAAGVKKSGPLPSAERLENVLFGPHDCSHAPPDGYPIIPTSGSVPVQKQASLFPDEKEDNLLGTTCLIATAVITLFNEPSAEDSKKGPLTVAQKKAQNIMESFENPFRMFLPSLGHRAPVSQAAKFDPSTKIYEISNRWKLAQVQVQKDSKEAVKKKAAEQTAAREQAKEACKAAAEQAISVRQQVVLENAAKKRERATSDPRTTEQKQEKKRLKISKKPKDPEPPEKEFTPYDYSQSDFKAFAGNSKSKVSSQFDPNKQTPSGKKCIAAKKIKQSVGNKSMSFPTGKSDRGFRYNWPQR
